The text below walks through data of the supplement of paper PMC10369915.

B1: RAB11B_Y73_A68T (peptide)
chain: TGQERYRAITS
B2: RAF1_Y232 (peptide)
chain: SSQHRYSTPHA
B3: RAI14_Y869 (peptide)
chain: AEMKRYAESSS
B4: RABL3_Y185 (peptide)
chain: CTNPRYLAAGS
B5: RAC1_Y32 (peptide)
chain: AFPGEYIPTVF
B6: RAC1_Y64_Y64D (peptide)
chain: AGQEDDDRLRP
B7: RAB18_Y202_A198T (peptide)
chain: GTCGGYCSVLG
B8: RARRES1_Y159_D158V (peptide)
chain: RQQEVYLLYKQ
B9: RAB11B_Y73 (peptide)
chain: AGQERYRAITS
B10: RB1_Y446 (peptide)
chain: IGSQRYKLGVR
B11: QDPR_Y16_G17R (peptide)
chain: RRVLVYRGRGA
B12: RAB7A_Y37 (peptide)
chain: KFSNQYKATIG
B13: RARRES1_Y159_D158V_YF (peptide)
chain: RQQEVYLLFKQ
B14: RAC3_Y64_Q61L (peptide)
chain: AGLEDYDRLRP
B15: RAB7A_Y28_K32E (peptide)
chain: SLMNQYVNKEF
B16: QARS1_Y57_Y57H (peptide)
chain: TGILLHGLASR
B17: RABL3_Y185_R184Q (peptide)
chain: CTNPQYLAAGS
B18: RAF1_Y340_Q335H (peptide)
chain: HRDSSYYWEIE

The other results are listed elsewhere or left out. Cut-off read from the data, not from the text of the source: active = 3.2 or more and inactive = the rest. Only a few entries rise above the background.
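Note: displayed peptides selected on beads carrying the immobilized SH2 domain, with library peptides lacking any tyrosine serving as negative controls.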

One assay deals with SHP2 C-SH2 domain E139D. Put plainly: enrichment score (SH2-bound / input frequency) (ratio); bacterial display of known human phosphotyrosine sites (pTyr-Var adds point mutants) read by sequencing; higher = stronger binding; tyrosines were phosphorylated by kinases first. The settings on record: peptide library: pTyr-Var.
In the case of B1, the enrichment score is inactive: 0.563.
Same read-out and setting: with B2 the figure was inactive: 0.512; with B3, inactive: 0.407.
Still for that read-out and setting: then B4, with inactive: 0.657.
As for B5, the enrichment score was inactive: 1.05.
On the same count and under the same terms, with B6 the figure was inactive: 0.389.
As to B7, the enrichment score was inactive: 0.907.
Consider B8, for which the enrichment score is inactive: 1.74.
B9: the enrichment score was inactive: 0.478.
As to B10, the enrichment score was inactive: 0.935.
In the case of B11, the enrichment score is inactive: 0.195.
On the same count and under the same terms, with B12 the figure was inactive: 0.734; with B13, inactive: 1.96; with B14, inactive: 0.509.
Still for that read-out and setting: then B15, with inactive: 1.08; and B16, with inactive: 1.14; and B17, with inactive: 0.584.
The same measure, in the same setting: with B18 the figure was inactive: 1.11.

The target in another assay is SHP2 C-SH2 domain wild-type. The description is as above. The settings on record: peptide library: pTyr-Var.
For B1, the enrichment score is inactive: 0.393.
B2: the enrichment score is inactive: 0.458.
In the case of B3, the enrichment score was inactive: 0.408.
Regarding B4, the enrichment score was inactive: 0.952.
For B5, the enrichment score is inactive: 0.835.
In the case of B6, the enrichment score was inactive: 0.532.
Regarding B7, the enrichment score is inactive: 0.8.
On the same count and under the same terms, with B8 the figure was inactive: 1.4.
The same measure, in the same setting: then B9, with inactive: 0.373; and B10, with inactive: 0.85.
With B11, the enrichment score is inactive: 0.274.
B12: the enrichment score was inactive: 0.698.
For the molecule B13, the enrichment score was inactive: 1.96.
On to B14, for which the enrichment score is inactive: 0.417.
As to B15, the enrichment score is inactive: 0.896.
Still for that read-out and setting: then B16, with inactive: 0.666; and B17, with inactive: 0.597.
With B18, the enrichment score is inactive: 0.989.

The target of the next assay is SHP2 N-SH2 domain L43F. Described as above. The settings on record: peptide library: pTyr-Var.
Consider B1, for which the enrichment score was inactive: 0.451.
Same read-out and setting: then B2, with inactive: 0.524.
Same read-out and setting: with B3 the figure was inactive: 0.425; with B4, inactive: 0.831.
Regarding B5, the enrichment score is inactive: 0.883.
Turning to B6, the enrichment score is inactive: 0.427.
On the same count and under the same terms, with B7 the figure was inactive: 0.815.
On the same count and under the same terms, then B8, with inactive: 1.27; and B9, with inactive: 0.417.
On to B10, for which the enrichment score was inactive: 0.923.
Regarding B11, the enrichment score was inactive: 0.337.
Still for that read-out and setting: then B12, with inactive: 0.709.
With B13, the enrichment score was inactive: 1.79.
Still for that read-out and setting: with B14 the figure was inactive: 0.672; with B15, inactive: 1.07.
On to B16, for which the enrichment score is inactive: 1.04.
For B17, the enrichment score was inactive: 0.633.
Still for that read-out and setting: with B18 the figure was inactive: 0.497.

In another assay the target is SHP2 N-SH2 domain T42A. The description is as above. The settings on record: peptide library: pTyr-Var.
For the molecule B1, the enrichment score was inactive: 0.483.
Still for that read-out and setting: with B2 the figure was inactive: 0.52; with B3, inactive: 0.359.
With B4, the enrichment score was inactive: 0.628.
Still for that read-out and setting: with B5 the figure was inactive: 0.928; with B6, inactive: 0.562; with B7, inactive: 0.825.
The same measure, in the same setting: then B8, with inactive: 1.43.
Turning to B9, the enrichment score is inactive: 0.344.
The same measure, in the same setting: with B10 the figure was inactive: 0.684; with B11, inactive: 0.217; with B12, inactive: 0.602.
On the same count and under the same terms, with B13 the figure was inactive: 2.05; with B14, inactive: 0.496; with B15, inactive: 0.877.
On to B16, for which the enrichment score was inactive: 0.822.
The same measure, in the same setting: with B17 the figure was inactive: 0.659; with B18, inactive: 0.948.

Another assay concerns the target SHP2 N-SH2 domain T52S. The description is as above. The settings on record: peptide library: pTyr-Var.
On to B1, for which the enrichment score is inactive: 0.416.
On the same count and under the same terms, with B2 the figure was inactive: 0.489; with B3, inactive: 0.34.
On the same count and under the same terms, with B4 the figure was inactive: 0.814; with B5, inactive: 1; with B6, inactive: 0.453.
Same read-out and setting: then B7, with inactive: 0.764; and B8, with inactive: 0.965; and B9, with inactive: 0.435.
As for B10, the enrichment score is inactive: 0.869.
Still for that read-out and setting: with B11 the figure was inactive: 0.322.
Consider B12, for which the enrichment score was inactive: 0.665.
As for B13, the enrichment score was inactive: 1.74.
Still for that read-out and setting: with B14 the figure was inactive: 0.516.
Still for that read-out and setting: with B15 the figure was inactive: 0.966.
The same measure, in the same setting: with B16 the figure was inactive: 0.926; with B17, inactive: 0.526; with B18, inactive: 0.97.

In a further assay the target is SHP2 N-SH2 domain wild-type. Described as above. The settings on record: peptide library: pTyr-Var.
In the case of B1, the enrichment score was inactive: 0.483.
Turning to B2, the enrichment score was inactive: 0.5.
The same measure, in the same setting: then B3, with inactive: 0.421; and B4, with inactive: 1.09; and B5, with inactive: 0.858.
Still for that read-out and setting: with B6 the figure was inactive: 0.412; with B7, inactive: 0.85.
On the same count and under the same terms, with B8 the figure was inactive: 1.79.
Take B9: the enrichment score was inactive: 0.511.
In the case of B10, the enrichment score is inactive: 0.813.
In the case of B11, the enrichment score is inactive: 0.269.
With B12, the enrichment score was inactive: 0.809.
As to B13, the enrichment score is inactive: 1.51.
Still for that read-out and setting: then B14, with inactive: 0.468; and B15, with inactive: 1.12; and B16, with inactive: 1.01.
The same measure, in the same setting: then B17, with inactive: 0.772; and B18, with inactive: 1.13.
